Assay results reported in the supplement of paper PMC9151546.
Counter-ions that a name gives are not always drawn. Repeats are few or missing, and single values can be far off.

What was measured:
[1] = tested on: CHO-K1; experiment: hypodiploid nuclei frequency (% of nucleated events); higher = more hypodiploid events (aneugenic)
Protocol: (§1)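 Flow-cytometric in vitro micronucleus assay (Litron MicroFlow) in CHO-K1 cells in 96-well plates, 19 concentrations (4.5-200 µM, n=1 per concentration). Without S9, cells were exposed for 24 h and sampled at 48 h. With Aroclor 1254-induced rat liver S9, cells were exposed for 3-4 h and sampled at 27-28 h. Read-outs are %MN and %hypodiploid nuclei relative to nucleated events, and relative survival as the nuclei-to-bead ratio versus the 1% DMSO vehicle control (x100).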

[2] = tested on: CHO-K1; experiment: micronucleus frequency (% of nucleated events); higher = more micronuclei (genotoxic)
[3] = tested on: CHO-K1; experiment: relative survival (nuclei to bead ratio vs DMSO control) (% of vehicle control); higher = more surviving cells
Protocol: as §1
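Throughout, for hypodiploid nuclei frequency (% of nucleated events): hypodiploid nuclei gated on a flow cytometer with 488 nm excitation after SYTOX Green staining, cultures at 37 °C, positive controls vinblastine without S9 and cyclophosphamide with S9.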
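Throughout, for micronucleus frequency (% of nucleated events): cells lysed with nuclei stained by SYTOX Green, then micronucleus-gated events counted against nucleated events by flow cytometry with 488 nm excitation.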
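Throughout, for relative survival (nuclei to bead ratio vs DMSO control): Lysed-cell nuclei stained with SYTOX Green and counted against counting beads by flow cytometry at 488 nm excitation, with vinblastine (no S9) and cyclophosphamide (plus S9) as positive controls.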

CCCCc1oc2ccccc2c1C(=O)c1cc(I)c(OCCN(CC)CC)c(I)c1 [Amiodarone hydrochloride]
Details | hypodiploid nuclei frequency, [1] [%] | micronucleus frequency, [2] [%] | relative survival, [3]
concentration: 3.4 (µM), S9 metabolic activation: with S9, exposure time: 3-4 hours | 0.52 | 1.66 | 89.8
concentration: 3.4 (µM), S9 metabolic activation: without S9, exposure time: 24 hours | 66.8 | 3.1 | 60.2
concentration: 4.25 (µM), S9 metabolic activation: with S9, exposure time: 3-4 hours | 0.34 | 2.22 | 90
concentration: 4.25 (µM), S9 metabolic activation: without S9, exposure time: 24 hours | 5.88 | 2.12 | 89.8
concentration: 5.31 (µM), S9 metabolic activation: with S9, exposure time: 3-4 hours | 0.56 | 2.1 | 92.5
concentration: 5.31 (µM), S9 metabolic activation: without S9, exposure time: 24 hours | 1.02 | 2.4 | 104
concentration: 6.64 (µM), S9 metabolic activation: with S9, exposure time: 3-4 hours | 0.76 | 1.54 | 88
concentration: 6.64 (µM), S9 metabolic activation: without S9, exposure time: 24 hours | 0.94 | 2.32 | 90.1
concentration: 8.3 (µM), S9 metabolic activation: with S9, exposure time: 3-4 hours | 0.6 | 1.88 | 102
concentration: 8.3 (µM), S9 metabolic activation: without S9, exposure time: 24 hours | 0.98 | 2.36 | 83.9
concentration: 10.4 (µM), S9 metabolic activation: with S9, exposure time: 3-4 hours | 0.48 | 1.62 | 97.2
concentration: 10.4 (µM), S9 metabolic activation: without S9, exposure time: 24 hours | 0.94 | 1.6 | 109
concentration: 13 (µM), S9 metabolic activation: with S9, exposure time: 3-4 hours | 0.56 | 1.98 | 93
concentration: 13 (µM), S9 metabolic activation: without S9, exposure time: 24 hours | 1.32 | 1.6 | 96.5
concentration: 16.2 (µM), S9 metabolic activation: with S9, exposure time: 3-4 hours | 1.04 | 2.26 | 92
concentration: 16.2 (µM), S9 metabolic activation: without S9, exposure time: 24 hours | 0.94 | 2.42 | 77.9
concentration: 20.3 (µM), S9 metabolic activation: with S9, exposure time: 3-4 hours | 2.78 | 3.1 | 88.4
concentration: 20.3 (µM), S9 metabolic activation: without S9, exposure time: 24 hours | 1.3 | 2.34 | 87.5
concentration: 25.3 (µM), S9 metabolic activation: with S9, exposure time: 3-4 hours | 3.32 | 3.8 | 87.7
concentration: 25.3 (µM), S9 metabolic activation: without S9, exposure time: 24 hours | 0.82 | 1.82 | 67.2
concentration: 31.7 (µM), S9 metabolic activation: with S9, exposure time: 3-4 hours | 3.6 | 4.26 | 71.1
concentration: 31.7 (µM), S9 metabolic activation: without S9, exposure time: 24 hours | 0.78 | 1.58 | 68.1
concentration: 39.6 (µM), S9 metabolic activation: with S9, exposure time: 3-4 hours | 7.84 | 6.08 | 56.8
concentration: 39.6 (µM), S9 metabolic activation: without S9, exposure time: 24 hours | – | – | 34.8
concentration: 49.5 (µM), S9 metabolic activation: with S9, exposure time: 3-4 hours | 10.4 | 8.16 | 45.2
concentration: 49.5 (µM), S9 metabolic activation: without S9, exposure time: 24 hours | – | – | 22.7
concentration: 61.8 (µM), S9 metabolic activation: with S9, exposure time: 3-4 hours | – | – | 38.8
concentration: 61.8 (µM), S9 metabolic activation: without S9, exposure time: 24 hours | – | – | 2.66
concentration: 77.3 (µM), S9 metabolic activation: with S9, exposure time: 3-4 hours | – | – | 31.8
concentration: 77.3 (µM), S9 metabolic activation: without S9, exposure time: 24 hours | – | – | 0.01
concentration: 96.6 (µM), S9 metabolic activation: with S9, exposure time: 3-4 hours | – | – | 19
concentration: 96.6 (µM), S9 metabolic activation: without S9, exposure time: 24 hours | – | – | 0.02
concentration: 121 (µM), S9 metabolic activation: with S9, exposure time: 3-4 hours | – | – | 6.42
concentration: 121 (µM), S9 metabolic activation: without S9, exposure time: 24 hours | – | – | 0.02
concentration: 151 (µM), S9 metabolic activation: without S9, exposure time: 24 hours | – | – | 0.01

O=C1c2c(O)cccc2Cc2cccc(O)c21 [Anthralin]
Details | hypodiploid nuclei frequency, [1] [%] | micronucleus frequency, [2] [%] | relative survival, [3]
concentration: 4.5 (µM), S9 metabolic activation: with S9, exposure time: 3-4 hours | 0.5 | 1.44 | 133
concentration: 4.5 (µM), S9 metabolic activation: without S9, exposure time: 24 hours | 1.14 | 2.12 | 115
concentration: 5.63 (µM), S9 metabolic activation: with S9, exposure time: 3-4 hours | 0.52 | 1.5 | 135
concentration: 5.63 (µM), S9 metabolic activation: without S9, exposure time: 24 hours | 0.72 | 2.98 | 92.3
concentration: 7.04 (µM), S9 metabolic activation: with S9, exposure time: 3-4 hours | 0.22 | 1.42 | 138
concentration: 7.04 (µM), S9 metabolic activation: without S9, exposure time: 24 hours | 1.08 | 1.72 | 103
concentration: 8.8 (µM), S9 metabolic activation: with S9, exposure time: 3-4 hours | 0.22 | 0.94 | 116
concentration: 8.8 (µM), S9 metabolic activation: without S9, exposure time: 24 hours | 0.88 | 2.34 | 108
concentration: 11 (µM), S9 metabolic activation: with S9, exposure time: 3-4 hours | 0.38 | 1.44 | 113
concentration: 11 (µM), S9 metabolic activation: without S9, exposure time: 24 hours | 0.82 | 2.14 | 107
concentration: 13.7 (µM), S9 metabolic activation: with S9, exposure time: 3-4 hours | 0.34 | 0.76 | 118
concentration: 13.7 (µM), S9 metabolic activation: without S9, exposure time: 24 hours | 1.06 | 2.06 | 98.7
concentration: 17.2 (µM), S9 metabolic activation: with S9, exposure time: 3-4 hours | 0.3 | 1.04 | 119
concentration: 17.2 (µM), S9 metabolic activation: without S9, exposure time: 24 hours | 0.86 | 1.76 | 102
concentration: 21.5 (µM), S9 metabolic activation: with S9, exposure time: 3-4 hours | 0.32 | 0.9 | 101
concentration: 21.5 (µM), S9 metabolic activation: without S9, exposure time: 24 hours | 0.88 | 1.98 | 103
concentration: 26.8 (µM), S9 metabolic activation: with S9, exposure time: 3-4 hours | 0.44 | 1.58 | 126
concentration: 26.8 (µM), S9 metabolic activation: without S9, exposure time: 24 hours | 1.34 | 2.92 | 83.1
concentration: 33.6 (µM), S9 metabolic activation: with S9, exposure time: 3-4 hours | 0.42 | 1.6 | 146
concentration: 33.6 (µM), S9 metabolic activation: without S9, exposure time: 24 hours | 1.62 | 1.82 | 83.5
concentration: 41.9 (µM), S9 metabolic activation: with S9, exposure time: 3-4 hours | 0.48 | 1.68 | 158
concentration: 41.9 (µM), S9 metabolic activation: without S9, exposure time: 24 hours | 1.22 | 2.74 | 109
concentration: 52.4 (µM), S9 metabolic activation: with S9, exposure time: 3-4 hours | 0.32 | 1.4 | 160
concentration: 52.4 (µM), S9 metabolic activation: without S9, exposure time: 24 hours | 1.26 | 2.36 | 117
concentration: 65.5 (µM), S9 metabolic activation: with S9, exposure time: 3-4 hours | 0.26 | 1.28 | 129
concentration: 65.5 (µM), S9 metabolic activation: without S9, exposure time: 24 hours | 1.42 | 2.74 | 104
concentration: 81.9 (µM), S9 metabolic activation: with S9, exposure time: 3-4 hours | 0.3 | 0.7 | 126
concentration: 81.9 (µM), S9 metabolic activation: without S9, exposure time: 24 hours | 1.22 | 2.06 | 80.1
concentration: 102 (µM), S9 metabolic activation: with S9, exposure time: 3-4 hours | 0.28 | 1.38 | 110
concentration: 102 (µM), S9 metabolic activation: without S9, exposure time: 24 hours | 1.64 | 2.7 | 84.9
concentration: 128 (µM), S9 metabolic activation: with S9, exposure time: 3-4 hours | 0.22 | 1 | 110
concentration: 128 (µM), S9 metabolic activation: without S9, exposure time: 24 hours | 1.84 | 2.78 | 92.9
concentration: 160 (µM), S9 metabolic activation: with S9, exposure time: 3-4 hours | 0.22 | 1 | 117
concentration: 160 (µM), S9 metabolic activation: without S9, exposure time: 24 hours | 1.8 | 3.26 | 83.1
concentration: 200 (µM), S9 metabolic activation: with S9, exposure time: 3-4 hours | 0.32 | 1.1 | 111
concentration: 200 (µM), S9 metabolic activation: without S9, exposure time: 24 hours | 2 | 3.8 | 80.5
